Reference: the RNAGym collection of RNA variant scans (doi:10.7554/elife.90254)
The source gives no read counts; variants with many changes may rest on few reads.

B1: LINE1-mini (parent)
chain: GGCAGAGCUCAACACAGCGUGGCAAAGUGGCUGUGGCUAGACUGCC

Variants of: B1
Test: self-cleavage, relative activity (ratio to wild type); higher = more cleavage; in vitro, sequencing; the parent is a self-cleaving ribozyme

| Variant | self-cleavage |
| --- | --- |
| G19C U20A G21C U34G | 0.11 |
| C18U A26G A41G | 0.12 |
| C18U G21U A25G G44A C45U | 0.03 |
| C18A G29U C45A | 0.54 |
| C18U G30A U38G | 0.01 |
| G19A A25G A26G | 0.16 |
| G19U G30C A39U | 0.05 |
| G19U U28G G40A C42U | 0.03 |
| G19C G21U G33C A39C | 0.12 |
| G19U A25G C31G | 0.01 |
| U20A C23A G36A | 0.06 |
| G19U U28C C37U | 0.02 |
| C18A G22C U28G U32C C46G | 0.06 |
| G19A U34A C46A | 0.06 |
| G19C G27U G29A | 1.37 |
| C18U C31G G44U | 0.02 |
| G19A A26G G36U | 0.02 |
| C18U G19U U32A G35U C42U G44C | 0.02 |
| C18U C23U C42A | 0.06 |
| G19A G30A A41C | 0.1 |
| C18A G29C G33U G40U C46A | 0.01 |

| Variant | self-cleavage |
| --- | --- |
| G19A U20C G29A C45A | 0.08 |
| G19A G27A U38A | 0.12 |
| G19C G30A A39U G44U | 0.04 |
| C18G G19U A25G G40U | 0.01 |
| G19A C31A A39C | 0.14 |
| C18G C23A G36U A39G G40A | 0.03 |
| C18U G21C U32C | 0.32 |
| G19A G21C G29C U43A | 0.02 |
| C18G A25U G30C U38C | 0.35 |
| U20A A26U A39G | 0.04 |
| C18A G36A C42U U43G | 0.11 |
| G19U U32G G44A | 0.03 |
| G19A A26U A41C | 0.05 |
| C18A G30C G35C A39G A41G | 0 |
| G19U G21A G27A | 0.45 |
| C18U U28C U32C | 0.53 |
| G19C C31U C37U U38C C46A | 0.01 |
| C18G G21C G22A | 0.05 |
| C18G G21C G22C | 0.47 |
| C18G G29A G40A | 0.12 |
| C18G C37A C46G | 0.06 |

| Variant | self-cleavage |
| --- | --- |
| G19C A26U A39G | 0.03 |
| G19C A24C G29A | 0.46 |
| C18G A25C C42U U43A | 0.08 |
| C18U G35A C45A | 0.07 |
| G19U G22U C31A | 0.31 |
| G19U A26G G27U | 2.26 |
| G19A G27A G29U | 1.2 |
| G19U G36A G44A | 0.23 |
| C18G G33U C37A A41C | 0.04 |
| G19C C23A G27C | 0.48 |
| G19A U32A U34G C45U | 0.08 |
| C18A G29C U32C G44U | 0 |
| C18U U20G G30C G40U | 0.02 |
| G19U C23A A26C | 2.63 |
| C18U G22A G29C U32G C42A | 0.12 |
| G19U G33U G40C | 0.04 |
| C18G U43C C46U | 0.02 |
| C18G A26G G29U C37A | 0.51 |
| C18U G22U G33U | 0.04 |
| G19U U34G G40C | 0.01 |
| C18U U20C C23A G40U | 0.08 |

| Variant | self-cleavage |
| --- | --- |
| G19C U32A A39G | 0.07 |
| G19A G36A A39C | 0.04 |
| G19U C23U A25U | 0.45 |
| G19C G22A G40U C46U | 0.01 |
| G19A G30C C31G C45U | 0.19 |
| G19C U28C G29A C46U | 2.95 |
| G19C C23A G40C | 0.05 |
| C18U G27U U34A | 0.14 |
| G19U G33A C37U A41C | 0.06 |
| G19C C23U G35U | 0.11 |
| C18U U20A A39C G40A | 0.07 |
| G19A G27A C37U A39C | 0.04 |
| G19C G30A G36C U38A | 0.04 |
| C18U G27A C46A | 2.49 |
| G19A G36A U43C | 0.14 |
| G19A A26G C31G C37U G40U C45G | 0.01 |
| C18U G35U G40C | 0.02 |
| G19U G21C U34C | 0.2 |
| C18U G27A G33A | 0.01 |
| C18U G21A A24G | 0.1 |
| U20A A26C G35U | 0.05 |
